The values that follow come from ChEMBL document CHEMBL4888484, “Replenishing the malaria drug discovery pipeline: Screening and hit evaluation of the MMV Hit Generation Library 1 (HGL1) against asexual blood stage Plasmodium falciparum ,using a nano luciferase reporter read-out” (2022).

About 540 (0.36%) of roughly 150,000 compounds showed an effect of 50% or more. The list shows a part of the results.

This experiment deals with Plasmodium falciparum. Description: Primary screen in NF54 nanoGlo assay, in single point, at 2uM, 72h; a lower Z score goes with more inhibition. It counts as functional, Erythrocyte. As to conditions: timepoint 72 hour.
Take `O=C(NCc1nc(C2CCOCC2)no1)c1ccc(Br)o1`: the “% Inhibition” value was -6% and the Z score is 1.07.

As for `CCc1nncn1CCN[C@@H](C)c1ccc(-n2cnnn2)cc1`, the “% Inhibition” value is recorded as -5% and the Z score stood at 0.46.

Regarding `Cc1ccc(C)c(OCCc2nnc(NC(=O)[C@H]3CCCN(C)C3)s2)c1`, the “% Inhibition” value was -10% and the Z score worked out at 1.83.

Take `Cc1[nH]c2ccccc2c1CN1CCC(CCC(=O)NCc2ccc(F)cc2)CC1`: the “% Inhibition” value is 5% and the Z score is -0.76.

With `COc1ccccc1S(=O)(=O)N1CC(c2ccccc2)C(c2nc(C)no2)C1` (centres undefined), the “% Inhibition” value is recorded as 3% and the Z score is on record as -0.55.

For the compound `c1cc(CNc2cc(-c3ccc(Cn4ccnc4)cc3)c3cc[nH]c3n2)ccn1`, the “% Inhibition” value is given as 0% and the Z score is recorded as -0.05.

Regarding `CN1C(=O)C2(CCN(C(=O)c3ccc(F)c(F)c3)CC2)c2ccccc21`, the “% Inhibition” value is -15% and the Z score was 2.9.

For the compound `CCN1CCN(Cc2cccn2-c2nnc(N3CCN(Cc4ccccc4)CC3)s2)CC1`, the “% Inhibition” value stood at 4% and the Z score is -0.41.

Take `CC(=O)c1ccc(N2CCN(C(=O)c3noc(-c4ccc[nH]c4=O)n3)CC2)cc1`: the “% Inhibition” value is -22% and the Z score worked out at 1.98.

For the compound `Cn1cc(C(=O)N[C@H](c2ccccn2)C(F)(F)F)ccc1=O`, the “% Inhibition” value is on record as -3% and the Z score is 0.64.

As to `CCN1C(=O)CO[C@H](C(=O)NC23CCC(CC2)CC3)[C@H]1c1ccnn1C`, the “% Inhibition” value was 2% and the Z score is reported as -0.34.

On to `CC1(C)CCc2onc(C(=O)N3CCC(c4nnc5n4CCNC5)CC3)c2C1`, for which the “% Inhibition” value is recorded as -4% and the Z score is 0.45.

As for `COc1cccc(CNc2cccc(OCC(F)F)n2)n1`, the “% Inhibition” value is -5% and the Z score is 0.52.

`COCCn1nnnc1[C@]1(N2CCOCC2)CCCN(C(=O)Nc2ccc(C)cc2C)C1`: the “% Inhibition” value was 1% and the Z score was -0.12.

`Cc1nn(C)c2nc(-c3ccccn3)nc(N3CC(N4CCCC[C@@H]4C)C3)c12`: the “% Inhibition” value was -1% and the Z score came to 0.24.

For `Cc1cc(OCC2CCN(C(=O)CCC(F)(F)F)CC2)ncn1`, the “% Inhibition” value is reported as -5% and the Z score is on record as 0.97.

As for `Cc1nc(CN2CCC[C@H]2c2cnn(C)c2)oc1C`, the “% Inhibition” value is listed as -13% and the Z score came out at 1.71.

For the compound `Cc1nc(CCNc2ccc(C)c(F)c2)cs1`, the “% Inhibition” value is on record as -10% and the Z score was 1.05.

On to `Cc1nc(N(C)Cc2nccn2C)ccc1C#N`, for which the “% Inhibition” value is on record as 2% and the Z score was -0.36.

Turning to `Cc1[nH]c(=O)[nH]c(=O)c1-c1ccc(-c2ccn[nH]2)cc1`, the “% Inhibition” value is on record as -10% and the Z score amounted to 1.91.

As to `Cc1cc(=O)[nH]c(-n2[nH]c(C)c(CCO)c2=O)n1`, the “% Inhibition” value is on record as -2% and the Z score amounted to 0.33.

`O=C(N[C@@H](CN1C(=O)COC1=O)c1ccccc1)c1ccc2ncsc2c1`: the “% Inhibition” value is given as -9% and the Z score is given as 1.41.

With `Cc1cc([C@]2(C)NC(=O)N(Cc3nc4ccccc4n3C(F)F)C2=O)c(C)o1`, the “% Inhibition” value is recorded as 11% and the Z score is -1.72.

Regarding `Cn1nncc1C=Cc1cc(C(=O)O)nc(-c2ccc(Cl)cc2)n1`, the “% Inhibition” value was -1% and the Z score is 0.2.

As to `CCOc1cc(C(=O)Nc2ccncc2)ncn1`, the “% Inhibition” value stood at 5% and the Z score is recorded as -0.88.

In the case of `CC(=O)N1CCC(CN(C)C(C)c2ccc(C(C)C)cc2)C1` (centres undefined), the “% Inhibition” value was -1% and the Z score is listed as 0.16.

As for `CN1C(=O)CC[C@@]12CCN(S(=O)(=O)c1ccc3c(c1)CCCC3)C2`, the “% Inhibition” value is recorded as -3% and the Z score came out at 0.4.

`O=c1[nH]cnn1-c1ccc(Br)cc1`: the “% Inhibition” value is -11% and the Z score worked out at 1.65.

As to `O=S(=O)(NCc1ccccc1)N[C@H]1CCCN(c2ncccn2)C1`, the “% Inhibition” value is reported as -12% and the Z score was 2.36.

As for `O=C(N[C@@H]1CCc2ccccc21)c1ccccc1`, the “% Inhibition” value is on record as -7% and the Z score is on record as 1.07.

`C[C@H](NCc1cc(O)nc(C2CC2)n1)c1cscn1`: the “% Inhibition” value is recorded as -9% and the Z score came to 1.59.

Regarding `CC1CCN([C@H]2CCc3c(c(C(=O)N(C)C)nn3Cc3ccccc3)C2)CC1`, the “% Inhibition” value is given as -8% and the Z score is recorded as 0.93.

On to `Cc1ccc(=O)n(CCOc2ccc(Cl)c(F)c2)n1`, for which the “% Inhibition” value was 5% and the Z score is recorded as -0.58.

With `NC(=O)[C@H]1CCCN(c2noc3ccc(Br)cc23)C1`, the “% Inhibition” value came out at 29% and the Z score is recorded as -3.33.

With `CN(C)[C@@H](CNC(=O)c1cc2c([nH]1)CCCC2)C1CC1`, the “% Inhibition” value is reported as -7% and the Z score is on record as 0.97.

On to `N#C[C@H](c1nc2ccccc2nc1N1CCN(c2ccccc2)CC1)S(=O)(=O)c1cccs1`, for which the “% Inhibition” value is -10% and the Z score worked out at 0.89.

Take `CC[C@](C)(Nc1ccc2c(c1)OCO2)c1nnnn1-c1ccc(OC)cc1`: the “% Inhibition” value is 1% and the Z score is reported as -0.18.

As for `Cc1nn(CC(=O)N2CCC(=O)NC[C@@H]2C)c(=O)n1CCc1ccccc1`, the “% Inhibition” value is given as -4% and the Z score amounted to 0.53.

Regarding `COc1ccccc1C(=O)NCc1nccc(N(C)C)n1`, the “% Inhibition” value is reported as -11% and the Z score came out at 1.7.

In the case of `COc1cccc(C(=O)N2CCN(c3cccnc3)C(=O)C2)c1OC`, the “% Inhibition” value came out at 9% and the Z score is -1.08.

Turning to `COCCNC(=O)N1CC[C@H](c2ccsc2)C1`, the “% Inhibition” value is recorded as -6% and the Z score worked out at 1.14.

Take `CC1(C)CN(C(=O)c2csc(C3CC3)n2)CC[S@@+]1[O-]`: the “% Inhibition” value turned out to be 2% and the Z score is -0.23.

For orientation: % Inhibition means the change of the read-out against control, counted positive when it falls.
